In article PMC5467913 one finds binding data, which are given here for five molecules.

Assay [1] deals with T1, DAF-16 (yeast two-hybrid fusion) (C. elegans) (UniProt O16850).
T1 sequence: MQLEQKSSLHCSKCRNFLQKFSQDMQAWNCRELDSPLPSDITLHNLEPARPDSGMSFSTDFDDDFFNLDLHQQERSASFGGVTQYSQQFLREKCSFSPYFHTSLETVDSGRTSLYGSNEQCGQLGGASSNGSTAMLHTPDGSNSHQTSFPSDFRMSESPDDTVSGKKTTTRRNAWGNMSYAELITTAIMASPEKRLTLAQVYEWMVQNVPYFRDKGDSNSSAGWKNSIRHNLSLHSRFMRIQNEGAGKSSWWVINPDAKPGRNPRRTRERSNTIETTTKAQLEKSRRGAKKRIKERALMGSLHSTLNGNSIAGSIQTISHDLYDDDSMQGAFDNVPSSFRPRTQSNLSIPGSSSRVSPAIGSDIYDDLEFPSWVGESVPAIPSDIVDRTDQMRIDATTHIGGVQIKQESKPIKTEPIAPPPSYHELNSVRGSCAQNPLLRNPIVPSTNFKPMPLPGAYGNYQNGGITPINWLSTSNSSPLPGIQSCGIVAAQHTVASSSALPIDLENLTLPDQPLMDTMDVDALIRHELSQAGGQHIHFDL
In words: two-hybrid; pGBKT7 and pGADT7 fusions in yeast strain AH109; selection on -Leu/-Trp/-His with 3 mM 3-AT and on -Leu/-Trp/-Ade.

Assay [2] deals with T2, SMA-3 (yeast two-hybrid fusion) (C. elegans) (UniProt P45896).
T2 sequence: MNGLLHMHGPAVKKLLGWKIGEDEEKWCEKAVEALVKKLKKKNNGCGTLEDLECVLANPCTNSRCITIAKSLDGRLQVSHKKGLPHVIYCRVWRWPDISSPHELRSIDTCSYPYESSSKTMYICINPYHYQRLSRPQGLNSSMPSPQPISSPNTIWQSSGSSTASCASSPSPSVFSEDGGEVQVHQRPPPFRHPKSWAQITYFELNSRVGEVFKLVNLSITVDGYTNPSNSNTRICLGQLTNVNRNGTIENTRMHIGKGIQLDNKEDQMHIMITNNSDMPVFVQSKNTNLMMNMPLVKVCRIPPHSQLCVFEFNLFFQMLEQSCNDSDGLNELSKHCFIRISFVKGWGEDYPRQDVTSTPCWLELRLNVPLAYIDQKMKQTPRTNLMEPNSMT
The assay is described as above.

The target of assay [3] is T3, GFP::SMA-3 (functional transgene in C. elegans) (C. elegans) (UniProt P45896).
T3 sequence: T2 sequence
Put plainly: co-IP; sonicates of mixed-stage transgenic C. elegans, 5 mg total protein a sample; precipitated with anti-GFP antibody, Western blot with anti-DAF-16 antibody.

Assay [4] deals with T4, SMA-2::GFP (recombinant, in HEK293T cells) (C. elegans) (UniProt Q02330).
T4 sequence: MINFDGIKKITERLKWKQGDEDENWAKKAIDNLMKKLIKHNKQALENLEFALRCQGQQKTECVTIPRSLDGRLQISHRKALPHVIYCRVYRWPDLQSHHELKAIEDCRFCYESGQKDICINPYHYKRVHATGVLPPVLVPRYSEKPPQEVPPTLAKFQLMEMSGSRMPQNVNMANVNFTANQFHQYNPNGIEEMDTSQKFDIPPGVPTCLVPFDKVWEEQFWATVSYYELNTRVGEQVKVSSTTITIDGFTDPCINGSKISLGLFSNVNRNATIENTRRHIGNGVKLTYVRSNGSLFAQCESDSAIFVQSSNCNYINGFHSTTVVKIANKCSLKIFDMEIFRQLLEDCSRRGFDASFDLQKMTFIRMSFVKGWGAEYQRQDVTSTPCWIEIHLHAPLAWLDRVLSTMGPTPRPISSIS
Put plainly: co-IP; DAF-16::V5 co-expressed with SMA-2::GFP or GFP::SMA-3 in HEK293T cells.

In assay [5] the target is T5, GFP::SMA-3 (recombinant, in HEK293T cells) (C. elegans) (UniProt P45896).
T5 sequence: T2 sequence
The assay is described as above.

Assay [6] has as its target T6, FTT-2 (C. elegans 14-3-3 homologue; yeast two-hybrid fusion) (C. elegans) (UniProt Q20655).
T6 sequence: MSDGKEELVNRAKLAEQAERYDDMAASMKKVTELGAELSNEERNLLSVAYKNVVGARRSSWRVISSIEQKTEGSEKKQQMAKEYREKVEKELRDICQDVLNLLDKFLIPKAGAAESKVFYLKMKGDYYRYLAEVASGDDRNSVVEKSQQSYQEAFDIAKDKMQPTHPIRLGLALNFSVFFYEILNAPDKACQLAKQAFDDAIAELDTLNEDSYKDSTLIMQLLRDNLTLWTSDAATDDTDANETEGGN
Put plainly: two-hybrid; pGBKT7 and pGADT7 fusions in yeast strain AH109; selection on -Leu/-Trp/-His with 3 mM 3-AT and on -Leu/-Trp/-Ade.

No constants are given. Whether binding was seen depends on the method and setting. For some of these results: In cells and extracts the contact can be indirect. Some results given as binding are weak or reduced against the parent protein; the word gives no strength. Tags and fused reporters may be left off the sequences shown.

B1: SMA-2 (yeast two-hybrid fusion) (protein, UniProt Q02330 1-418)
chain: T4 sequence
With B1, the values for the binding entry in assay [1] and in assay [2] were “binds” and “no binding”, respectively.

B2: DAF-16 (C. elegans FOXO transcription factor), endogenous (protein, UniProt O16850 1-541)
chain: T1 sequence
As for B2, the binding entry in assay [3] is on record as “binds”.

B3: DAF-16::V5 (recombinant, in HEK293T cells) (protein, UniProt O16850 1-541)
chain: T1 sequence
Consider B3, for which the binding result in assay [4] and in assay [5] was “binds” throughout.

B4: DAF-16 (yeast two-hybrid fusion) (protein, UniProt O16850 1-541)
chain: T1 sequence
As to B4, the binding entry in assay [6] is “binds”.

B5: SMA-3 (yeast two-hybrid fusion) (protein, UniProt P45896 1-393)
chain: T2 sequence
Regarding B5, the binding result in assay [1] is listed as “binds”.
